Assay results reported in the supplement of paper PMC3334620.
Over roughly 33,000 sequences, “E-score (-0.5 to 0.5)” has its median near -0.041; the highest 2% begin near 0.37. This is one part of the list.

Target: T1, Ecm22 (UniProt Q05958)
T1 sequence: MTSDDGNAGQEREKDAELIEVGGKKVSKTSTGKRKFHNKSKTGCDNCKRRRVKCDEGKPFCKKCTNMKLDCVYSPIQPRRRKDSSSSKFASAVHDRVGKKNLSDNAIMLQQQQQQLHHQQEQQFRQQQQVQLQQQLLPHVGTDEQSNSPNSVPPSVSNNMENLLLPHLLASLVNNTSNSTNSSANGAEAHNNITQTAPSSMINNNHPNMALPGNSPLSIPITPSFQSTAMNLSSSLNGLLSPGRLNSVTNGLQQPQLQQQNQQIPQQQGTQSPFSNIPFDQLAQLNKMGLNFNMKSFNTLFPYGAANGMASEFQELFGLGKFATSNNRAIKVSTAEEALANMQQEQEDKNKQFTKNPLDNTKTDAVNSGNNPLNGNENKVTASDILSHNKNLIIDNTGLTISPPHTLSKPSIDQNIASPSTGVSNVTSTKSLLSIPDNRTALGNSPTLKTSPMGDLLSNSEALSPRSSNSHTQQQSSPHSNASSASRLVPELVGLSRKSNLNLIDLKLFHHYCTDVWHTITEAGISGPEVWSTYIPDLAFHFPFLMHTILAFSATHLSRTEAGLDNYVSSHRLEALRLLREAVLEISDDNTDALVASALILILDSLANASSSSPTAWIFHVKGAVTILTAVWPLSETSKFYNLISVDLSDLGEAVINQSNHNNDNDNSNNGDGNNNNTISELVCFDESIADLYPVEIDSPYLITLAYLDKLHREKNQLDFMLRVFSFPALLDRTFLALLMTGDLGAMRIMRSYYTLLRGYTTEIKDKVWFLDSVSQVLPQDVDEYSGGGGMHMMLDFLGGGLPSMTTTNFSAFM
Experiment: PBM E-score (8-mer binding enrichment) (E-score (-0.5 to 0.5)); higher = stronger / more preferred TF binding; most listed sequences are background and not binding sites
Details: protein concentration: 200 nM; construct: GST-full length
Protocol: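 Universal 'all 10-mer' protein binding microarrays (Agilent AMADID 015681) probed with GST-tagged S. cerevisiae TFs (full-length or DBD) made by in vitro transcription/translation (PURExpress), about 100-200 nM. Bound TF was detected with fluorescent anti-GST. Each ungapped 8-mer (which stands for itself and its reverse complement) is scored by the PBM enrichment score (E-score), a modified Wilcoxon-Mann-Whitney statistic from -0.5 to +0.5, computed with the Universal PBM Analysis Suite. Scale: above 0.35 generally sequence-specific binding.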

Row | Sequence | PBM E-score
1 | GTCAGCGA | -0.206
2 | ACGGGACG | 0.232
3 | AATCAGGG | -0.29
4 | ATGAATTG | -0.027
5 | GCACCCCA | 0.0124
6 | AGGTCTAA | 0.00436
7 | ACATGCCC | -0.0896
8 | CCCGTAGA | -0.00351
9 | ACCACGGT | -0.195
10 | ACAATCGC | 0.226
11 | CAAGTCCG | -0.0213
12 | AAATATGT | 0.251
13 | AAAATACT | -0.198
14 | ACCGCACA | -0.0742
15 | ACCTATTC | 0.0363
16 | AAAGGCTA | -0.194
17 | GATTCTAA | 0.0816
18 | GTCATTGA | -0.121
19 | AAATCGGA | 0.0916
20 | AAGTCCGG | -0.147
21 | AGTAAGAG | -0.101
22 | AACATAGG | -0.0983
23 | CACACCGC | 0.00932
24 | TAAACTGA | -0.00079
25 | GCGTCACA | -0.0587

Row | Sequence | PBM E-score
26 | CCTCCAAA | 0.0418
27 | ACGTCGGC | 0.0782
28 | ACGCTCGA | 0.0433
29 | AGTTGTAG | -0.125
30 | GCTGCGCA | -0.183
31 | ACAAGGGA | -0.202
32 | GCTAAGTA | -0.0177
33 | CCTTTGCA | -0.0826
34 | AGCTGACA | -0.112
35 | AGCGGCCT | -0.18
36 | CCGTATTC | 0.282
37 | ACAGCACA | 0.0791
38 | GCCCCGCA | -0.164
39 | CGGCTTTA | 0.0433
40 | ATCTGTAA | -0.0737
41 | ACTTAGCT | -0.147
42 | ACCTGTCT | -0.1
43 | AACTAACG | 0.141
44 | GCCTAGGA | -0.275
45 | CAATTGAG | -0.015
46 | CTGCTTGC | -0.103
47 | ACACCCCG | -0.0824
48 | ATGGGCAG | -0.0905
49 | CCAAACGA | 0.437
50 | CCCGAAGA | 0.0524

Row | Sequence | PBM E-score
51 | GCGAGAAC | 0.242
52 | TACGGCCA | 0.245
53 | GCATCCGA | 0.0366
54 | AGTCGACC | -0.112
55 | GTAACACA | 0.099
56 | CGGACTGA | -0.0426
57 | AACAGTAG | 0.0314
58 | CGCCCCTA | -0.104
59 | CAAGAGAA | 0.177
60 | ACGACGTC | 0.393
61 | CGTACTGA | 0.32
62 | CGATCGGC | -0.0318
63 | GGACTAAA | -0.133
64 | AATCAGAG | -0.0473
65 | AAAGTCGC | 0.0917
66 | ATCTATCG | 0.0416
67 | ACGGAGCT | 0.0831
68 | AAGCCCCA | -0.2
69 | ATTTTCTG | -0.00936
70 | ATAACTGC | -0.245
71 | AGCAAGTC | -0.228
72 | TGGCTCAA | -0.132
73 | AATCTGAT | -0.156
74 | CCTCTTAC | 0.0146
75 | CGTTCAAA | 0.361

Row | Sequence | PBM E-score
76 | AGTTCCTG | -0.175
77 | CATTGCGA | 0.00848
78 | GGATTCCC | -0.208
79 | CATTGAGA | -0.0539
80 | GGGTTAAC | 0.0136
81 | AGCAAACA | 0.0546
82 | CCAGGTCA | -0.311
83 | CAGCGTCA | -0.262
84 | GCTCTGCC | -0.222
85 | CCCTAGCA | -0.154
86 | GTGTAGAA | 0.0801
87 | CTATAGAC | -0.141
88 | CGACGAAG | 0.247
89 | GGTTTGCA | 0.157
90 | AGCTTGGG | -0.0421
91 | ACTACCTA | -0.0511
92 | GAAATGAA | 0.161
93 | CAGAATGA | -0.0254
94 | ATCCTTGC | -0.167
95 | AACCATTG | -0.0764
96 | AATTACCC | -0.0882
97 | CCAAAGCA | -0.196
98 | CCAGAACC | -0.088
99 | CACGGGGC | -0.188
100 | CGCCGTGA | -0.142

Row | Sequence | PBM E-score
101 | AGAGGTCA | -0.166
102 | CACGCGTC | 0.069
103 | GGGTAACA | -0.012
104 | ATATAATA | -0.00075
105 | CGCCATGC | -0.137
106 | ATCACTTC | -0.0396
107 | AGACCCTC | -0.206
108 | CCCTTAAC | -0.118
109 | GGGGGACA | -0.0351
110 | CGCCTTAA | 0.117
111 | CGTGGAAG | -0.0408
112 | CATTCACG | 0.0618
113 | GGTGTGGA | 0.0381
114 | GGACCTAA | 0.149
115 | CAGTAACC | -0.0532
116 | CTTCTGGC | -0.199
117 | AACTTTGT | -0.164
118 | GGTTATCA | -0.134
119 | ATTCCCCA | -0.0894
120 | CACGGGCA | -0.18
121 | CCTGGACA | -0.215
122 | GTGGTGAA | -0.133
123 | TGCAACCA | 0.0663
124 | CCTAGTAC | 0.0215
125 | CTGCACCA | -0.137

Row | Sequence | PBM E-score
126 | CCAGGCAA | -0.169
127 | CTTTTGTA | 0.125
128 | AGCGAGAC | 0.193
129 | CTCATGCC | -0.129
130 | ACGACGGG | 0.393
131 | ACGTGCAT | -0.0369
132 | CTAGCACA | -0.324
133 | ACTTCCCC | -0.324
134 | TTCGACAA | 0.0503
135 | CGAGTAAC | 0.334
136 | CCCCAACG | -0.168
137 | GCTGCGGA | -0.167
138 | GGACCCTA | -0.183
139 | GTGTATCA | -0.0197
140 | ACAACAAG | 0.0901
141 | CAGCACAC | -0.218
142 | AAGTTAGG | -0.0797
143 | AGTGTCAG | -0.0807
144 | ACTCCATC | -0.264
145 | ACTCGTCA | 0.0424
146 | CTTAGGGA | -0.27
147 | GGAGGGCA | -0.218
148 | CGGTCTAG | 0.211
149 | AAAATACG | 0.372
150 | CAATTTCA | -0.16

Row | Sequence | PBM E-score
151 | ATTAACCG | 0.277
152 | CAGTACTG | -0.0227
153 | ATGGATGC | -0.105
154 | GACTCTAC | 0.0581
155 | TACTGGAA | -0.0395
156 | ACTAGGGC | -0.385
157 | AAGGGGGG | -0.257
158 | CGCCGCCG | -0.0595
159 | ATCCAAAG | -0.094
160 | CACAGCGC | -0.215
161 | GTCCTAAC | -0.196
162 | CAATCGTA | 0.389
163 | CAGGGTCG | -0.00935
164 | CTCTTTTA | -0.0199
165 | AGGTTCCG | -0.0965
166 | AAAGATCC | -0.00107
167 | AGCCATAC | 0.2
168 | TGCACAAA | -0.22
169 | CCCGGATC | 0.0112
170 | CACTGCAC | -0.226
171 | AGTTCTTG | -0.0776
172 | CTTTTTAC | 0.128
